Measured values: ChEMBL document CHEMBL4888484, “Replenishing the malaria drug discovery pipeline: Screening and hit evaluation of the MMV Hit Generation Library 1 (HGL1) against asexual blood stage Plasmodium falciparum ,using a nano luciferase reporter read-out” (2022)
Screen size: about 150,000 compounds; about 540 (0.36%) showed an effect of 50% or more. The list shows a part of the results.

System: Plasmodium falciparum
Assay: Primary screen in NF54 nanoGlo assay, in single point, at 2uM, 72h; a lower Z score goes with more inhibition
Assay type: functional, Erythrocyte
Conditions: timepoint 72 hour

Row | SMILES | % Inhibition [%] | Z score
1 | CC(NC(CC1CCOC1)c1ccccc1)c1ncc(C(C)(C)C)o1 (configuration not stated) | -8 | 1.17
2 | CC(C)c1ocnc1C(=O)Nc1cccc(S(=O)(=O)NC2CC2)c1 | 3 | -0.42
3 | COc1cc(-c2ccc(C(=O)N3CCC[C@H](O)C3)cc2)nc(OC)n1 | 2 | -0.43
4 | COC(=O)[C@H](CS(=O)(=O)N(C)OC)NC(=O)OCc1ccccc1 | -6 | 0.75
5 | CC(C)c1nnc(CNC(=O)[C@H]2CCO[C@@H]2c2ccnn2C(C)C)[nH]1 | -6 | 0.81
6 | O=C(CN1C(=O)COc2ccc(Cl)cc21)OC1CCCCC1 | -9 | 1.15
7 | O=C(Nc1cccc(Cl)c1)c1ncccn1 | -5 | 0.61
8 | O=C(c1ccc(C(F)F)c(F)c1)N1CC2(C1)CS(=O)(=O)C2 | -7 | 0.96
9 | CCOC(=O)N1CCN(C(=O)[C@H]2CC[C@H](Cn3c(=O)[nH]c4ccccc4c3=O)CC2)CC1 | 4 | -0.47
10 | COc1cccc(CNCc2ccccc2C)c1OC[C@@H](O)CN1CCOCC1 | 0 | 0.05
11 | COc1ccc(CNC(=O)c2ccc(-n3nc(N4CCCC4)ccc3=O)cc2)cc1 | -16 | 1.94
12 | O[C@@H](CNCCCn1ccnc1)COc1ccc(Cl)cc1Cl | 26 | -2.66
13 | CCN(CC)C(=O)c1c(CC2CCCC2)n(Cc2cccnc2)c(C)cc1=O | 12 | -2.15
14 | O=S(=O)(Nc1nc(-c2cc(F)ccc2F)cs1)c1cccs1 | -10 | 1.26
15 | O[C@@H](CCNCc1ccccc1)c1ccccc1 | 33 | -3.84
16 | NC(=O)C(c1ccccc1)N1C[C@@H](N)[C@H](c2ccccc2)C1 (some centres not stated) | -3 | 0.48
17 | CC[C@@H](NC(=O)N1CC[C@@H](O)C1)c1ccccc1 | -14 | 2.71
18 | CCC(CC)C(=O)N1C[C@@H]2CN(C3CCCC3)CC[C@]2(CO)C1 | -9 | 1.3
19 | COc1ccc(-c2noc([C@@H]3CCCN3)n2)cc1OC | -10 | 1.23
20 | O=C(CC1CCC2CC12)NS(=O)(=O)c1sccc1Cl (configuration not stated) | 4 | -0.8
21 | COC(=O)C(C)OC1C(NC(C)=O)C(OCc2ccccc2)OC2COC(C)(C)OC21 (configuration not stated) | -5 | 0.55

Row | SMILES | % Inhibition [%] | Z score
22 | CC[C@@H](CO)NC(=O)Nc1nccs1 | -10 | 1.37
23 | CNS(=O)(=O)c1ccc(N2CCN(C)C(=O)[C@@H]2C)nc1 | -10 | 1.81
24 | O=C1OC(c2ccc(N3C(=O)c4ccccc4C3=O)cc2)(c2ccc(N3C(=O)c4ccccc4C3=O)cc2)c2ccccc21 | -7 | 1.26
25 | COC[C@H]1CCN(C(=O)N2CCOc3cc(F)c(F)cc32)C1 | -8 | 1.23
26 | Cc1cccc(OCC(O)Cn2c(N3CCCC(C)C3)nc3c2c(=O)[nH]c(=O)n3C)c1 (configuration not stated) | 2 | -0.21
27 | C[C@]1(CO)[C@H]2Cc3sc(NC(=O)C4CCC4)nc3[C@@H](CC(=O)NCCN3CCOCC3)[C@]2(C)CC[C@H]1O | 32 | -3.56
28 | Cc1nc(N2CCC(O)C3CCCCC32)ccc1C#N (configuration not stated) | 4 | -0.74
29 | CCOC(=O)COc1cccnc1C#N | -9 | 1.36
30 | CS(=O)(=O)N1CCO[C@@H](CNC(=O)Nc2cccc(-c3ccco3)c2)C1 | -8 | 0.79
31 | CS(=O)(=O)N1CCN(C(=O)C[C@@H]2NC(=O)N(CCc3cccc(F)c3)C2=O)CC1 | -13 | 1.66
32 | O=C(C1CC1c1ccccc1)N1CCc2ccccc21 (configuration not stated) | 33 | -3.78
33 | Cc1ccc(CNC(=O)c2ccc3nn(CC(=O)Nc4ccc5c(c4)OCO5)c(=O)n3c2)cc1 | -16 | 1.44
34 | CC(C)CN1C[C@@H](c2ncc(-c3cccnc3)[nH]2)CC1=O | -5 | 0.66
35 | Cc1cccc(C(=O)N2CC[C@H](N(CCN3CCOCC3)S(C)(=O)=O)C2)n1 | 2 | -0.27
36 | Cc1cccc(OCc2nc(C(=O)NC3CC3)cs2)c1 | -1 | 0.27
37 | CCn1nc(C)c(Cn2ccnc2-c2ccc(-c3cc[nH]n3)o2)c1C | -11 | 2.22
38 | O[C@H](COCc1ccccc1)CN(Cc1ccccc1)Cc1ccc(F)cc1F | 1 | -0.18
39 | COc1cc2c(cc1OC)CN(C(=O)c1c(C)nn([C@H]3CCS(=O)(=O)C3)c1C)CC2 | 1 | -0.06
40 | Cc1cc(C(=O)Cn2cnc(C#N)n2)c(C)n1-c1ccc2c(c1)CCC2 | -6 | 0.93
41 | CS(=O)(=O)[C@H]1CCN(C(=O)c2csc(-c3cccs3)n2)C1 | -20 | 3.73
42 | O=C(c1ccc2c(c1)CCO2)N1CCc2[nH]ncc2C1 | -7 | 0.96

Row | SMILES | % Inhibition [%] | Z score
43 | Cc1c(C(=O)O)cnn1-c1ccncc1 | -3 | 0.34
44 | Cc1nc(NC(=O)c2ccsc2)n(C)n1 | -5 | 0.52
45 | CCN(C(=O)c1ccc(C)nc1)c1cccnc1C | -11 | 1.43
46 | c1ccc2c(c1)cnn2-c1ccc(Oc2ncnc3c2CCC3)cc1 | -15 | 1.74
47 | CCCN(C)c1nc(-c2ccccc2)nc2c1CN(S(=O)(=O)c1cc(Cl)ccc1Cl)CC2 | 3 | -0.37
48 | CC(C)(C)c1ccc2c(c1)N(Cc1cccc(C(=O)NCc3ccc(F)cc3)c1)C(=O)CO2 | 2 | -0.27
49 | COCCn1cc(CNc2cc(C(C)C)ncn2)c(=O)[nH]c1=O | -4 | 0.59
50 | COCCn1cnnc1[C@H](C)NCc1n[nH]c(C)c1Cl | -5 | 0.85
51 | CCOc1ccccc1CN1CCC2(CCC(=O)N(Cc3ccncc3)C2)CC1 | -13 | 2.04
52 | Cc1cc(C(=O)NC(C)(C)c2c[nH]nn2)ns1 | -19 | 3.7
53 | O=C(Nc1cccc(-c2cscn2)c1)C1CCN(C(=O)[C@H]2CCCO2)CC1 | -8 | 0.75
54 | Cn1c(CO)nnc1C1CCN(C(=O)c2n[nH]c(=O)c3ccccc23)CC1 | -6 | 0.74
55 | Cc1ccc(N2C[C@]34C=C[C@H](O3)C(C(=O)N(C)Cc3ccncn3)C4C2=O)cc1C (some centres not stated) | -8 | 1.01
56 | C[C@@H](CNC(=O)CCCOCCc1ccccc1)N1CCN(C)CC1 | -5 | 0.94
57 | Cc1nn(C)cc1CN(Cc1ccncc1)C1CCCCC1 | 8 | -1.12
58 | CC(Cc1cnc[nH]1)C(=O)N1CCC[C@H]1C(=O)N(C)C (some centres not stated) | -7 | 0.85
59 | COc1ccccc1CNC(=O)CC1CCN(C(=O)c2ccc3oc(-c4ccccc4)nc3c2)CC1 | -13 | 1.5
60 | COc1ccc(C(=O)N(Cc2ccc(-c3cccc(C(F)(F)F)c3)o2)[C@H]2CCS(=O)(=O)C2)cc1 | -10 | 1.34
61 | COc1cc(C(=O)N2CCC[C@H](c3nc4ccccc4s3)C2)ccc1OCC(=O)N1CCOCC1 | -1 | 0.23
62 | CC(C)(C)n1ncc2c(=O)[nH]c(N[C@@H](CF)c3ccc(F)cc3)nc21 | -9 | 1.26
63 | Cc1nc(C#N)c(NCCc2nc(-c3ccccc3)no2)o1 | 1 | -0.11

Row | SMILES | % Inhibition [%] | Z score
64 | O=C(COC(=O)[C@@H](O)C1CCOCC1)NCCOc1ccccc1 | 10 | -1.84
65 | O=C(Nc1nnc2ccccn12)c1cc2c(s1)CCC2 | -22 | 2.2
66 | COc1cc(-c2ccnc3c2ccn3C)nc(N)n1 | 0 | -0.07
67 | Cn1nc(-c2ccccc2)c(CN(CC2CC2)C(=O)c2ccco2)c1Oc1ccc(Cl)cc1 | 12 | -1.58
68 | Cc1cc2c(cc1S(=O)(=O)N1CCC[C@H](C(=O)Nc3cccc4c3CCCC4)C1)OCC(=O)N2 | -5 | 0.64
69 | CCc1ccc([C@@H]2CNCCN2S(=O)(=O)c2cnc3onc(CC)c3c2)cc1 | 3 | -0.46
70 | COCCOc1nc(-c2cccc(OC)c2)n(-c2cccc(NC(=O)c3cccc(OC)c3)c2)n1 | -12 | 1.24
71 | CCN(CC)CCC[C@H](C)NC(=O)c1cc(C)c2c(-c3ccccc3)nn(-c3cccc(F)c3)c2n1 | -14 | 1.27
72 | O=S(=O)(Nc1ccc(O)cc1)c1cc(-c2nnc(-c3ccccc3)o2)ccc1F | -3 | 0.55
73 | CN(c1cccc(NC(=O)c2ccc(F)cc2)c1)S(C)(=O)=O | 0 | 0
74 | COc1ccc(CCNC(=O)c2cccc(NS(=O)(=O)c3ccc(F)c(Cl)c3)c2)cc1OC | -7 | 1.37
75 | c1cc(C2CCCC2)nc(N2CCC3(CCO3)CC2)n1 | 1 | -0.13
76 | O=C([C@H]1CCc2nnnn2CC1)N(CCc1ccccc1)C1CC1 | -14 | 1.54
77 | COCCN1C[C@]2(CCCN(C(=O)c3cn(C)cn3)C2)CCC1=O | 4 | -0.77
78 | CC(=O)c1nc2cc(F)c(N3CCOCC3)cc2nc1C | 32 | -4.07
79 | CCOCc1nnc2n1CCN(C(=O)OC(C)(C)C)C(C)(C)C2 | 1 | -0.18
80 | C[C@@]1(C(=O)NCCc2nc3ccccc3c(=O)[nH]2)CCCCO1 | -11 | 2.11
81 | Cc1nc2ncnn2c(N2CC[C@]3(CCOC3)C2)c1C | -12 | 2.15
